# Experimental data: PubChem BioAssay AID504832 (National Center for Advancing Translational Sciences (NCATS), 2011)
# Out of some 310,000 compounds screened, about 18,000 (5.8%) were called active. This list was built around the results that the source calls inconclusive (neither active nor inactive); the mix of calls is not that of the screen. Calls follow the shape of the dose curve; as a rule, active = well fitted inhibition curve with a large enough effect; inconclusive = small, poorly fitted or top-dose-only effect, or another doubt; inactive = no such curve, though single readings can be large or run the other way. Potencies of inconclusive entries are left out as doubtful fits.
# Assay: Primary qHTS for delayed death inhibitors of the malarial parasite plastid, 48 hour incubation
# Settings: P. falciparum luciferase growth in erythrocytes; series mostly up to 28.7 µM; activity change, negative = inhibition: at the top concentration
# Outline: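 Read-out is firefly luciferase luminescence from an integrated reporter in P. falciparum, so falling signal marks reduced parasite growth. Infected erythrocytes were at 2% hematocrit and 0.1% parasitemia (final) in Albumax-supplemented RPMI 1640.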
# % is scaled to controls: 0 for no effect and ±100 for the full control effect; potency is read from the fitted curve at half-maximal effect; tags tell the direction and shape of the fitted curve.
SMILES,Potency,"activity change, negative = inhibition"
CCOc1ccc(S(=O)(=O)N(CC)CC)cc1NC(=O)c1ccc(N2CCCC2=O)cc1,active: 10.4 µM,
CC(=O)c1c(OC(=O)c2ccccc2)c2ccccc2n1C,"inconclusive [inhibitor, partial curve, poor fit]",
CCOC(=O)C1CC(=O)c2cc(OC)c(OC)cc2C1 (stereo not drawn),"inconclusive [inhibitor, single point]",
CCSc1nnc(NC(=O)c2cccc(S(=O)(=O)N(C)c3ccc(C)cc3)c2)s1,"inconclusive [inhibitor, partial curve]",
CCOC(=O)N1CCC(NC(=O)c2cc(C(=O)Nc3ccc(S(=O)(=O)N4CCCCC4)cc3)ccc2CO)CC1,"inconclusive [inhibitor, partial curve]",
FC(F)(F)c1cccc(-n2cc(-c3ccccc3)[nH]c2=S)c1,active: 11.7 µM,
C[C@H](NC(=O)c1nc[nH]c1C(=O)NC(c1ccccc1)c1ccccc1)C(=O)OC(C)(C)C,"inconclusive [inhibitor, full curve, poor fit]",
CCOC(=O)C1CCN(C(=O)C(=O)Nc2ccc3nc4n(c(=O)c3c2)CCCCC4)CC1,"inconclusive [inhibitor, partial curve, poor fit]",
O=C(O)c1ccc(OCC(O)Cn2cnc3ccccc32)cc1 (stereo not drawn),,inactive: -0.536%
Cc1cc2n(n1)C(c1ccccc1)CC(c1ccc(Br)cc1)=N2 (stereo not drawn),"inconclusive [inhibitor, partial curve, poor fit]",
COC(=O)c1sccc1NC(=S)N1CCCC(C)C1 (stereo not drawn),active: 11.7 µM,
O=c1[nH]c(=S)[nH]c(O)c1/C=C1/C=c2ccccc2=N1,,inactive: -1.12%
CCCCn1c(=O)n(CC(=O)Nc2ccc(C)c(Cl)c2)c(=O)c2c1ncn2Cc1ccco1,active: 11.7 µM,
O=C1c2ccc3c4c(ccc(c24)C(=O)N1c1ccc(O)cc1)C(=O)N(c1ccc(O)cc1)C3=O,,inactive: -15.2%
Nc1nc(Cl)cc(N2CCC(c3cc(-c4ccc(Cl)cc4)n[nH]3)CC2)n1,"inconclusive [inhibitor, partial curve]",
CCCCCC[n+]1c(-c2ccccc2)csc1Nc1ccccc1,active: 3.29 µM,
Cc1c(Cl)cccc1NC(=S)NC1CCN(C(C)C)CC1,"inconclusive [inhibitor, partial curve, poor fit]",
COc1ccc(Cl)cc1NC(=O)c1cc(-c2ccc(C)cc2O)n[nH]1,"inconclusive [inhibitor, partial curve, poor fit]",
Cc1csc(NC(=O)c2ccc(C)c(S(=O)(=O)N3CCCCC3)c2)n1,active: 3.29 µM,
O=C1CCc2cc(S(=O)(=O)NCc3ccc(Cl)cc3)cc3c2N1CC3,"inconclusive [inhibitor, partial curve, poor fit]",
Cc1onc(-c2ccccc2Cl)c1C(=O)OCC(=O)Nc1cccc(S(=O)(=O)N2CCOCC2)c1,"inconclusive [inhibitor, single point]",
CCOC(=O)c1[nH]c(COC(=O)CCCOc2ccccc2)c(C(=O)OCC)c1C,active: 13.1 µM,
O=C(CSc1nnc(CNC(=O)c2ccc(F)cc2)o1)NCC1CCCO1 (stereo not drawn),,inactive: -15%

SMILES,Potency,"activity change, negative = inhibition"
CCC(C(=O)NCCN1CCN(C)CC1)n1c(C)c2cnn(-c3ccccc3)c(=O)c2c1C (stereo not drawn),"inconclusive [inhibitor, single point]",
O=c1c(-c2ccccc2)coc2c(CN3CCCCC3)c(O)ccc12,"inconclusive [inhibitor, full curve, poor fit]",
C/C(=N/NC(=O)Cc1c(C)[nH][nH]c1=O)c1ccc(O)cc1,"inconclusive [inhibitor, single point]",
O=C(c1ccccc1)C1CCN(C(=O)C2CCC(=O)N(Cc3ccccc3F)C2)CC1 (stereo not drawn),"inconclusive [inhibitor, single point]",
O=C(N/N=C/c1cc2c(cc1Br)OCO2)c1c[nH]c2ccccc12,"inconclusive [inhibitor, single point]",
Cc1cc(C)nc(N2CCC(CNC(=O)CCc3ccccc3)CC2)n1,"inconclusive [inhibitor, single point]",
O=C(CN(C1CCCCC1)S(=O)(=O)c1ccccc1)N1CCCC1,,inactive: 4.57%
CCc1ccc(N(C(=O)c2ccco2)C(C(=O)NC2CCCC2)c2cccnc2)cc1 (stereo not drawn),"inconclusive [inhibitor, partial curve]",
CCOC(=O)Cc1csc(NC(=O)c2ccc(Br)cc2)n1,,inactive: 21.2%
O=C(Nc1cccc(Cl)c1)N1CCN2C(=O)c3ccccc3C12c1ccccc1 (stereo not drawn),active: 16.5 µM,
CCc1noc(C)c1C(=O)NNC(=O)c1ccc(N(CC)CC)cc1,"inconclusive [inhibitor, single point]",
Cc1noc(C)c1COc1ccc(C(=O)NCc2ccccn2)cc1,,inactive: 1.22%
COCC(C)n1c(SCC(=O)c2cc(C)n(C)c2C)nc2ccccc2c1=O (stereo not drawn),active: 13.1 µM,
CCOCC(=O)Nc1ccc(S(=O)(=O)N2CCC(c3nc4ccccc4[nH]3)CC2)cc1,active: 10.4 µM,
Cc1cc(Br)ccc1NC(=O)CNC(=O)Cc1ccc(S(=O)(=O)N2CCOCC2)s1,,inactive: -16.1%
CCn1c(C)nc2cc(C(=O)n3cc(C(=O)c4ccccc4O)cn3)ccc21,"inconclusive [inhibitor, single point]",
CC(C)CNC(=S)NC1CC2CCCC(C1)N2C1CCCCC1 (stereo not drawn),"inconclusive [inhibitor, partial curve, poor fit]",
COc1ccccc1NC(=S)N(Cc1cccnc1)Cc1ccco1,active: 11.7 µM,
COc1ccc(S(=O)(=O)N2CCCCC2)cc1NC(=O)c1ccc(=O)[nH]c1,"inconclusive [inhibitor, full curve, poor fit]",
NC(=O)NC(=O)CSc1nc2cc([N+](=O)[O-])ccc2n1-c1cccc(C(F)(F)F)c1,"inconclusive [inhibitor, single point]",
CC(C)c1ccc(NC(=O)CSc2nnc(OC(=O)N(C)C)n2C2CC2)cc1,"inconclusive [inhibitor, full curve, poor fit]",
CCS(=O)(=O)N1CCC(C(=O)Nc2ccc(C(C)=O)cc2)CC1,"inconclusive [inhibitor, single point]",
O=C(COc1ccc([N+](=O)[O-])cc1)NNC(=O)c1cccnc1,"inconclusive [inhibitor, single point]",

SMILES,Potency,"activity change, negative = inhibition"
COc1cc(/C=C/c2cc(C(=O)O)c3ccccc3n2)ccc1OC(F)F,,inactive: 105%
CCSc1ccc([C@@H]2[C@H]3C(=O)N(C)C(=O)[C@H]3[C@]3(C(=O)OC)CCCCN23)cc1OC,active: 10.4 µM,
Oc1ccc(C=Nc2ccccc2-c2nc3ccccc3[nH]2)c(O)c1,,inactive: 116%
O=C(CCS(=O)(=O)c1ccc(Cl)cc1)N1CCN(c2ccc(F)cc2)CC1,"inconclusive [inhibitor, single point]",
CCOC(=O)c1ccccc1NC(=S)N1CC(C)CC(C)C1 (stereo not drawn),active: 2.94 µM,
Cc1ccc(S(=O)(=O)N2CCN(C(=O)CSc3nncs3)CC2)cc1,,inactive: 15.8%
CCC(C)(C)NC(=O)C(Sc1ccccc1)c1ccccc1 (stereo not drawn),"inconclusive [inhibitor, single point]",
COC(=O)C1=C(c2ccc(OC)c(OC)c2)C[C@@H]2CC[C@H]1N2C(=O)N1CCCC1,,inactive: -22.3%
CNC(=O)CSc1nnc(-c2cccc(S(=O)(=O)N3CCOCC3)c2)n1-c1ccc(F)cc1,,inactive: 6.31%
CCOc1ccccc1NC(=O)C(NC(=O)C1CCC(C)CC1)C(C)C (stereo not drawn),"inconclusive [inhibitor, single point]",
COc1ccc2c(C)cc(SCC(=O)c3ccc4c(c3)OCO4)nc2c1,"inconclusive [inhibitor, single point]",
CC(NC(=O)c1ccco1)C(=O)N1CCN(c2cccc(C(F)(F)F)c2)CC1 (stereo not drawn),"inconclusive [inhibitor, single point]",
COc1ccc(C2c3c(ccc4ccccc34)Oc3ncn4nc(Cc5ccc(OC)c(OC)c5)nc4c32)cc1 (stereo not drawn),"inconclusive [inhibitor, single point]",
O=C(NCc1ccccc1)C(=O)NCC1OCCCN1S(=O)(=O)c1cccs1 (stereo not drawn),"inconclusive [inhibitor, partial curve, poor fit]",
Cn1ccnc1Sc1ccccc1[N+](=O)[O-],,inactive: -22.2%
Cc1cc(NC(=O)CSc2nnc(CNc3cccc(C(F)(F)F)c3)n2Cc2ccco2)no1,"inconclusive [inhibitor, single point]",
CCCCn1c(=O)[nH]c(=O)c2c1nc(-c1ccccc1F)n2Cc1ccccc1OC,"inconclusive [inhibitor, single point]",
Cc1cc(C)cc(N(C(=O)CNC(=O)c2ccco2)C(C(=O)NC2CCCCC2)c2cccnc2)c1 (stereo not drawn),"inconclusive [inhibitor, partial curve, poor fit]",
CN(Cc1c(F)cccc1Cl)C(=O)c1ccc(NS(=O)(=O)c2ccc3[nH]c(=O)[nH]c3c2)cc1,,inactive: 13.2%
CCOC(=O)C1CCN(C(=O)c2cccnc2Oc2ccccc2)CC1,,inactive: 7.72%
CCc1ccc(N(C(=O)Cc2cccs2)C(C(=O)NC2CCCCC2)c2cn(C)nc2C)cc1 (stereo not drawn),"inconclusive [inhibitor, single point]",
COc1cccc(Oc2cn[nH]c2-c2ccc(O)cc2O)c1,active: 5.22 µM,
